SMILES strings stand for the structures. The whole screen tested about 310,000 compounds, of which about 14,000 (4.5%) showed an effect of 50% or more. The effect is printed as a negative number. The list shows a part of the results.
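Further: peak tail current of the secondary pulse compared with the same well before compound.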

In the experiment the target is human ether-à-go-go-related gene (hERG) potassium channel (human, UniProt Q12809). As to the kind of experiment: primary screen, population patch clamp on CHO cells stably expressing hERG.
Chain of human ether-à-go-go-related gene (hERG) potassium channel (Q12809 whole entry, looked up): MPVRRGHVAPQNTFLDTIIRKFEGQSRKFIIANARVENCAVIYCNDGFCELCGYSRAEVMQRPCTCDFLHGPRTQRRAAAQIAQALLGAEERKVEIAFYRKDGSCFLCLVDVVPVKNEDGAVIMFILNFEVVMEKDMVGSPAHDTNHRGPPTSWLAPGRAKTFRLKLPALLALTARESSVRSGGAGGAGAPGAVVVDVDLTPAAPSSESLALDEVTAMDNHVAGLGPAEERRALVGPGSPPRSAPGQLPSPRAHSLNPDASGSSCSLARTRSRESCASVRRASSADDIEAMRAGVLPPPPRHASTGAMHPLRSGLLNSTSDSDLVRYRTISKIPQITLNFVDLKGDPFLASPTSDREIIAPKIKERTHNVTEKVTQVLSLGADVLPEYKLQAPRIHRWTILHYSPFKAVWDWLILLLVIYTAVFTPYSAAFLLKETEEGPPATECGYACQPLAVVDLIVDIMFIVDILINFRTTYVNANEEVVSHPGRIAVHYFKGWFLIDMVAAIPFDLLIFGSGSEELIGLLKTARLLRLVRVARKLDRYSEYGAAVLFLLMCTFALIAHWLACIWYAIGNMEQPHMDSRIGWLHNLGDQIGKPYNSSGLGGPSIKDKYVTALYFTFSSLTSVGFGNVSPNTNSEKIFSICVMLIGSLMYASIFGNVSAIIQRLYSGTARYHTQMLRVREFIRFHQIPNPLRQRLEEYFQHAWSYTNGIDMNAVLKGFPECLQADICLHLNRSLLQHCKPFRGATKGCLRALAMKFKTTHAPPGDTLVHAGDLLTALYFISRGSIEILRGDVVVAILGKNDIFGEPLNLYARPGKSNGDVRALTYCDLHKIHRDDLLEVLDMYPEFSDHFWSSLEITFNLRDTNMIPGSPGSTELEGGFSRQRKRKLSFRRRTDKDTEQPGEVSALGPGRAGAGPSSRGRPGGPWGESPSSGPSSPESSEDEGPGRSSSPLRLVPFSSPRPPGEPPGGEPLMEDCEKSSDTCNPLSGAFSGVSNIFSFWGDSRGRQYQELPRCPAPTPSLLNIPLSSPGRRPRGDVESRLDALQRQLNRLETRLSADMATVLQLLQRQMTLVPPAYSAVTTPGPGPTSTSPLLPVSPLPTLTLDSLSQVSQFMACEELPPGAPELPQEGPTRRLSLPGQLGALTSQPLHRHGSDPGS
As to `COc1ccc(S(=O)(=O)Nc2cc(C)nn2-c2ccccc2)cc1`, the “hERG current change (%, negative = inhibition) at 10uM” value worked out at 8.58%.
For `Cc1cc(/C=C2\C(=O)NC(=S)N(C)C2=O)c(C)n1C1CCCCC1`, the “hERG current change (%, negative = inhibition) at 10uM” value is 31.2%.
For `O=C(CN1CCCc2ccccc21)Nc1ccccc1[N+](=O)[O-]`, the “hERG current change (%, negative = inhibition) at 10uM” value was determined as 15.4%.
With `CC(C)(C)C1CCc2c(C(=O)N/N=C/c3cccs3)csc2C1` (centres unmarked), the “hERG current change (%, negative = inhibition) at 10uM” value was 6.11%.
For `CCC(C)(C)NC(=O)C(c1ccc(C)cc1)N(CC1CCCO1)C(=O)c1csnn1` (centres unmarked), the “hERG current change (%, negative = inhibition) at 10uM” value came to 10.5%.
In the case of `O=C(CNC(=O)c1ccc(Br)cc1)OCC(=O)c1ccccc1` it was 10.2%; in that of `CC1CCN(CCOCCSc2ccc(Cl)cc2)CC1.O=C(O)C(=O)O`, -72.1%.
For the compound `CCn1nc(C(=O)N2CCN(Cc3ccc4c(c3)OCO4)CC2)c2ccccc2c1=O`, the “hERG current change (%, negative = inhibition) at 10uM” value is on record as -52.1%.
In the case of `CCCN(Cc1nnc(-c2ccccc2Cl)o1)C(=O)COc1ccc(Cl)cc1` it was -60.5%.
The figure for `N#CC(C#N)=Cc1ccc(-c2ccccc2)o1` is -9.37%.
On to `O=C1C(c2ccc(F)cc2)N(CC2COc3ccccc3O2)C(=O)CN1C1CCCCC1` (centres unmarked), for which the “hERG current change (%, negative = inhibition) at 10uM” value is reported as -24.6%.
In the case of `c1cncc(-c2nc(N3CCCCCC3)c3ccccc3n2)c1` it was -92.9%.
For `N#C/C(=C\c1ccc(OCC(N)=O)cc1)c1ccccc1`, the “hERG current change (%, negative = inhibition) at 10uM” value is -1.83%.
In the case of `O=C(CCCC(=O)N(CC(=O)NC1CCCC1)Cc1ccc(F)cc1)Nc1ccccn1` it was -11.6%; in that of `COc1cc(C2SCC(=O)N2Cc2ccccc2)cc(OC)c1OC` (centres unmarked), 1.58%.
For `COc1cc(NC(=O)Cc2ccc(Cl)cc2)ccc1NC(=O)c1ccco1`, the “hERG current change (%, negative = inhibition) at 10uM” value is given as -3.08%.
In the case of `CCOc1ccc(NC(=O)COc2ccc(C(=O)NC3CCCc4ccccc43)cc2OC)cc1` (centres unmarked) it was -7.08%; in that of `Cc1cc(Cl)c2oc(C(=O)N3CCN(c4ccncc4)CC3)c(C)c2c1`, -75.9%; in that of `CCC(O)(C(=O)Nc1ccccc1C(F)(F)F)c1ccccc1OC` (centres unmarked), 10.8%.
In the case of `CC(=NC1CC1)C1=C(O)c2ccccc2C1=O` it was 24%; in that of `O=C(CCCCn1c(=O)[nH]c2ccccc2c1=O)N1CCN(c2cccc(C(F)(F)F)c2)CC1`, -56.1%; in that of `O=C(CSCc1nc2ccccc2[nH]1)Nc1ccc(Oc2ccccc2)cc1`, -6.95%.
In the case of `Cc1cccc(-c2noc(-c3ccoc3C)n2)c1` it was -24.1%.
In the case of `NC(=O)[C@H]1CC2(CC(c3cccc(NC(=O)COc4ccc(Cl)cc4)c3)=NO2)CN1C(=O)C(c1ccccc1)c1ccccc1` (some centres unmarked), the “hERG current change (%, negative = inhibition) at 10uM” value is recorded as 6.98%.
In the case of `Cc1ccc(C(=O)NNC(=O)C(C)Oc2ccc3ccccc3c2)o1` (centres unmarked), the “hERG current change (%, negative = inhibition) at 10uM” value is -13.2%.
In the case of `Cc1ccc(-n2c(CSc3nc(C)cc(C)n3)nnc2SCC(=O)N2CCCC2)cc1` it was -8.81%; in that of `CCOC(=O)C1=C(CS(=O)(=O)c2ccccc2)NC(=O)NC1c1ccccc1OC` (centres unmarked), 12.3%.
The figure for `N#CCC1c2ccccc2CCN1C(=O)Nc1ccc(Cl)cc1` (centres unmarked) is -16.3%.
In the case of `O=C(CSc1nncs1)Nc1ccc2c(c1)OCO2` it was 48.4%; in that of `Clc1ccc(N=c2ssnc2Cl)cc1`, 17.4%; in that of `CCSC1=C(C#N)C2(CCCCC2)C(C#N)=C(N)N1`, -0.905%.
As to `CCOC(=O)C1CCN(S(=O)(=O)c2cc(F)ccc2OC)CC1`, the “hERG current change (%, negative = inhibition) at 10uM” value is listed as -8.23%.
Take `CCOc1cc(NC(=O)CCl)c(OCC)cc1NC(=O)CCl`: the “hERG current change (%, negative = inhibition) at 10uM” value is on record as 5.56%.
`COC(=O)C1=C(c2cccc(OCc3ccccc3)c2)C[C@@H]2CC[C@H]1N2C(=O)NCc1cc(C)oc1C(F)(F)F`: the “hERG current change (%, negative = inhibition) at 10uM” value was -4.89%.
The figure for `CC(=O)c1c(C)[nH]c(C(=O)Nc2ccc(Cl)cc2F)c1C` is 0.923%; for `COc1cc(OC)cc(C(=O)N[C@H](C(=O)OCC(=O)Nc2ccc(F)c(F)c2)C(C)C)c1` it is -8.85%.
The figure for `CCN(CC(=O)Nc1ccccc1-c1ccccc1)Cc1nc2ccccc2c(=O)[nH]1` is -23.4%.
In the case of `CC1CC2C3CCC4=CC(=O)C=CC4(C)C3(F)C(O)CC2(C)C1(O)C(=O)CO` (centres unmarked) it was 11.1%; in that of `Cn1cccc1C(=O)OCC(=O)c1cc2ccccc2o1`, 5.27%; in that of `COc1ccc(C(=O)Nc2cccc3c2CCCC3)cc1`, 15.5%.
`COCCCNC(=O)C1CC(=O)N(CCc2ccc(F)cc2)C1` (centres unmarked): the “hERG current change (%, negative = inhibition) at 10uM” value is on record as 6.62%.
Consider `Cc1cccc(C2c3[nH]c4ccccc4c3CCN2C(=O)c2cc3c([nH]c2=O)CCCC3)n1` (centres unmarked), for which the “hERG current change (%, negative = inhibition) at 10uM” value is -11.6%.
Turning to `COC(=O)C1=C(C)Nc2ncnn2C1c1ccccn1` (centres unmarked), the “hERG current change (%, negative = inhibition) at 10uM” value is 2.71%.
In the case of `Cc1cc(S(=O)(=O)N(C)CCc2ccccc2)ccc1-n1cnnn1` it was -34%.

For the origin of these results see PMC4336329 (PLoS ONE, 2015).
